US20240216557A1, “RADIOLIGAND BINDING TO ANTI-DLL3 ANTIBODIES FOR PRETARGETED PET IMAGING AND THERAPEUTIC USES THEREOF” (Memorial Sloan-Kettering Cancer Center, priority 2021, published 2024)

T1: Histidine-tagged DLL3 antigen (DLL3-His) (Homo sapiens, UniProt Q9NYJ7)
T1 construct: corresponding to amino acids Ala27-Ala479 with a C-terminal 6×His tag; made in house; host or cells: HEK293T cells
T1 sequence (Q9NYJ7 27-479): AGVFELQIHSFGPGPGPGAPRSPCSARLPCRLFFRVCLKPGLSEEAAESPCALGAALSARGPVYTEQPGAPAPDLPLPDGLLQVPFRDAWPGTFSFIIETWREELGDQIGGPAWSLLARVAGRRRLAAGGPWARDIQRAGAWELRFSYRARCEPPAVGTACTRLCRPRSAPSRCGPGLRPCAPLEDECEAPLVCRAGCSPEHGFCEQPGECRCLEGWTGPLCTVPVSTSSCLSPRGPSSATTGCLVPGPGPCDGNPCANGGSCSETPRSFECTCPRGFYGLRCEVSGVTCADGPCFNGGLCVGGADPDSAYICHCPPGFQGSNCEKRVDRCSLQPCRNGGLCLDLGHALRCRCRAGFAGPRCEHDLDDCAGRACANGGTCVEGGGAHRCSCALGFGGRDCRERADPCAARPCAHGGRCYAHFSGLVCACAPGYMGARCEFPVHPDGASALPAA


Biological target: T1, Histidine-tagged DLL3 antigen (DLL3-His)
Experiment: Pairwise epitope binning on Carterra array SPR
Details: pairwise competition for binding to DLL3-His, antibodies immobilized on HC200M chip
Protocol: The panel of purified anti-DLL3 monoclonal antibodies and the reference monoclonal antibody were subjected to pairwise epitope binning on a Carterra® array surface plasmon resonance (SPR) assay platform (Carterra*Inc., Salt Lake City UT) where each monoclonal antibody was tested for the capture of Histidine-tagged DLL3 antigen (DLL3-His), and also for competing with every other antibody in the panel for the binding to DLL3-His. The antibodies were immobilized on a HC200M chip (ligand) through standard amine coupling techniques by the print array method. Then in each cycle antigen was injected across the entire array followed by a single antibody (analyte). At the end of each cycle the surface was regenerated to remove antigen and analyte before a new cycle started.

| Epitope Bin | Molecule |
| --- | --- |
| 4 | B16-v1: anti-DLL3 antibody, VH SEQ ID NO: 108, VL SEQ ID NO: 109 (antibody, V domains shown) VH: QVQLVQSGAEVKKPGASVKVSCKASGYTFTSYYMHWVRQAPGQGLEWMGIIDPSGGSTSYAQKFQGRVTMTRDTSTNTVYMDLSSLRSEDTAVYYCARQGRYVGSYLDYWGQGTLVTVSS VL: [no letters for about 100 residues]QGTKLEIK |
| 9 | C22: anti-DLL3 antibody, VH SEQ ID NO: 147, VL SEQ ID NO: 148 (antibody, V domains shown) VH: QVQLVQSGAEVKKPGASVKVSCKASGYTFTSYYMHWVRQAPGQGLEWMGIINPSGGSTSYAQKFQGRVTMTRDTSTSTVYMELSSLRSEDTAVYYCARVADIVGATFDYWGQGTLVTVSS VL: [no letters for about 100 residues]YTFGQGTKLEIK |
| 2 | J23: anti-DLL3 antibody, VH SEQ ID NO: 83, VL SEQ ID NO: 84 (antibody, V domains shown) VH: QVQLVQSGAEVKKPGASVKVSCKASGYTFTSYYMHWVRQAPGQGLEWMGIINYSGGSKSYAQKFQGRVTMTRDTSTSTVYMELSSLRSEDTGVYYCARQGRYSGSYLDYWGQGTLVTVSS VL: [no letters for about 100 residues]QGTKLEIK |

More lines, now with the values behind:

| Molecule | Epitope Bin |
| --- | --- |
| G3: anti-DLL3 antibody, VH SEQ ID NO: 52, VL SEQ ID NO: 53 (antibody, V domains shown) VH: QVQLQESGPGLVKPSETLFLTCTVSGGSISSYYWTWIRQPAGKGLEWIGRIYTSGSTNYNPSLKSRVTMSVDTSKNQFSLKLSSVTAADTAVYYCAREDWESWTFDIWGQGTMVTVSS VL: [no letters for about 100 residues]LSFGGGTKVEIK | 1 |
| D8: anti-DLL3 antibody, VH SEQ ID NO: 153, VL SEQ ID NO: 154 (antibody, V domains shown) VH: QVQLVQSGAEVKKPGASVKVSCKASGYTFTTYYMHWVRQAPGQGLEWMGIINPSGGSTSYAQKFQGRVTMTRDTSTSTVYMELSSLRSEDTAVYYCARQGHYIGNYLDYWGQGTLVTVSS VL: [no letters for about 100 residues]QGTKLEIK | 2 |
| L12: anti-DLL3 antibody, VH SEQ ID NO: 131, VL SEQ ID NO: 132 (antibody, V domains shown) VH: QVQLVQSGAEVKKPGASVKVSCKASGYTFTSYYMHWVRQAPGQGLEWMGIINPSGGSRSYAQKFQGRVTMTRDTSTSTVYMELSSLRSEDTAVYYCARQLELLGNAFDIWGQGTMVTVSS VL: [no letters for about 100 residues] | 4 |
